# Data published in the supplement of paper PMC3334620.
# The full ranking holds about 33,000 sequences; the median of “E-score (-0.5 to 0.5)” is about -0.017, and the highest 2% start at about 0.3. This is one part of the list.
# Target: T1, Sut1 (UniProt P53032)
# T1 sequence: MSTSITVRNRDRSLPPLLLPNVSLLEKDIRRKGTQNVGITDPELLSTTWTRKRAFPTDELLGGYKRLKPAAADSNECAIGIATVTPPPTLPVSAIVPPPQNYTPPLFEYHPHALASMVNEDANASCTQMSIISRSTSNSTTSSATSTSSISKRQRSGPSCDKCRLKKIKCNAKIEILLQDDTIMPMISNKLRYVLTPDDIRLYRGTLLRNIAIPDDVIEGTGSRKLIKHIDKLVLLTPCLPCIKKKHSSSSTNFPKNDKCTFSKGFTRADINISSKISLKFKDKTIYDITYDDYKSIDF
# Experiment: PBM E-score (8-mer binding enrichment) (E-score (-0.5 to 0.5)); higher = stronger / more preferred TF binding; most listed sequences are background and not binding sites
# Conditions: protein concentration: 200 nM; construct: GST-full length
# How it was run: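 PURExpress in vitro transcription/translation supplied GST-tagged yeast transcription factors, either full-length or DNA-binding domain. Applied at about 100-200 nM to universal all-10-mer Agilent arrays double-stranded by primer extension, the bound protein was detected with fluorescent anti-GST. E-scores, modified Wilcoxon-Mann-Whitney statistics, were given by the Universal PBM Analysis Suite to ungapped eight-base words pooled with their reverse complements after masliner normalisation.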
row,Sequence,PBM E-score
1,CGAGAGAA,-0.0301
2,CGAGGCAC,-0.181
3,CCGTAATA,0.179
4,CTCGTTTC,0.00631
5,TACGTTGA,0.0239
6,AATAGGAT,0.0954
7,CGCTCTCA,-0.203
8,AGCTTCAA,0.0933
9,TAGTGTCA,0.0294
10,AGAATCCT,-0.0099
11,ATTCACCC,0.0462
12,ATTTTAAC,0.122
13,AAGACAGC,-0.0476
14,TCCCGGAA,0.228
15,GAAATCGA,0.0701
16,CCCTTCGA,-0.127
17,GTGGGGTA,0.00147
18,AGAACTCC,0.31
19,GAGGTTGC,-0.0546
20,AACATGAA,-0.0497
21,TGTTCGAA,0.103
22,ACTCGTTG,0.0106
23,AAAGTAGC,0.0295
24,AAGCAATC,0.0607

row,Sequence,PBM E-score
1,ACTCTGTA,-0.139
2,ATTACATG,0.177
3,ATGACGGG,-0.178
4,CATGGAAG,0.0729
5,AACCCCCT,-0.356
6,TACAGTAA,0.104
7,CTTATGAA,0.0219
8,CGTTATCA,0.013
9,AAGTTTTA,0.214
10,GTTCGAAA,0.214
11,ATAGGTTC,0.104
12,TGGCCCCA,-0.354
13,AGAGAACC,0.0467
14,CCTAAGAG,-0.0768
15,ACTTGGGC,-0.18
16,GAATTCCA,0.174
17,AAATCTTC,0.0921
18,AGTCACGC,-0.152
19,CCGATCGA,0.0665
20,ACCTGCCT,-0.158
21,ATACGGAA,0.348
22,CTAGATAG,-0.0627
23,GATAGAAA,0.201
24,TCCCAGGA,-0.29

row,Sequence,PBM E-score
1,GGCCCATA,-0.114
2,CCGTAGAA,0.12
3,ACCGCGAC,-0.049
4,GGACGCTA,-0.229
5,AAGCTTGC,-0.198
6,CCCGGTCC,-0.0342
7,CACGTGGG,-0.261
8,AGAAAATA,0.242
9,TTAAGAAA,0.173
10,AAAAATAA,0.326
11,GCTCAAGC,-0.0665
12,ATTCCCGG,0.0955
13,AGGTAGAG,-0.141
14,CGGCAGTA,-0.0903
15,ACAGCGAC,-0.0841
16,ACGGTTGC,-0.215
17,ACTTAAAA,0.307
18,ATGCGCGC,-0.0785
19,GTTATCGA,0.0725
20,CGGCTATC,-0.0164
21,CTGGCCAA,-0.139
22,AAGGGGCC,-0.0872
23,CCCATAGG,-0.129
24,CACATTCC,0.105

row,Sequence,PBM E-score
1,GTATCAAA,0.134
2,CCTTGGCA,-0.0942
3,CCCTGCAA,-0.135
4,CTTAACAC,-0.122
5,AAGCCCTA,-0.0927
6,ACGGGAGT,0.0599
7,AGTTATTG,0.26
8,CACCTCGC,-0.18
9,CAAGCGTA,-0.0952
10,ATCTTTTC,0.0527
11,TGTGGAAA,0.202
12,GGTGGTCA,-0.0753
13,ACTCCACC,0.109
14,AACTATTC,0.156
15,AGGCAGAG,-0.0321
16,CCCGCTGA,-0.277
17,ATTCCCGC,0.0649
18,AGGAGCCG,-0.281
19,CCCTATTC,0.145
20,AGAGAACA,0.00919
21,ACATAGCC,0.0291
22,AAAACTCC,0.356
